# Test results: patent US9447027B2, “Treating long QT syndrome” (The General Hospital Corporation, priority 2010, dated 2016)
# Read-outs that look alike come from different tables or passages of the source.
# Legend:
# [1] = system: Zebrafish harboring the I59S KCNH2 mutation (breakdance); conditions: in vivo
# tb218 (bkd−/−) fish = experiment: Dose response and time series, suppression of the breakdance phenotype; type: in vivo, zebrafish; conditions: for ED50, suppression of the breakdance phenotype: tb218 fish at 48 hpf treated for 24 hours
# From the text: The wells were then scored for suppression of the breakdance phenotype at indicated times.
# wildtype fish = experiment: Optical voltage mapping of embryonic hearts, wildtype; type: in vivo, zebrafish; conditions: 50 μM at 48 hpf
# bkd−/− embryos = experiment: Optical voltage mapping of embryonic hearts, bkd−/−; type: in vivo, zebrafish; conditions: 50 μM at 48 hpf
# [2] = system: Zebrafish harboring the I59S KCNH2 mutation (breakdance); experiment: Steroid compound screen, dose response of rescue from 2:1 AV block; conditions: 0.1, 0.5, 1, 10, 50 and 100 μM for 24 hours
# [3] = system: zebrafish LQT2 breakdance (bkd−/−) embryos; experiment: Small molecule suppressor screen, rescue of 2:1 AV block in breakdance embryos; type: in vivo; conditions: 10 ng/μL added at 48 hpf, scored at 72 hpf
# From the text: 1200 small-molecule compounds from a commercially available small molecule library were screened for the ability to rescue zebrafish LQT2 breakdance embryos to identify compounds that shorten ventricular action potential durations (APDs). The zebrafish breakdance (bkd) mutant carries an I59S mutation in KCNH2, the LQTS 2 gene, and has an easily observed cardiac phenotype. Moreover, the I59S KCNH2 mutation faithfully recapitulates in the zebrafish embryos many features of human LQTS: ventricular APD prolongation, spontaneous early after depolarizations, and 2:1 atrioventricular conduction (AV) block in early stages of development. Since cell-based chemical screens for trafficking rescue are susceptible to high false positive rates due to the presence of KCNH2 inhibitors in many chemical libraries, and because they focus on a single mechanism of rescue, the hypothesis that the zebrafish LQTS 2 model breakdance could provide a functional phenotypic screen for compounds that shorten myocardial repolarization was tested.
# Breakdance homozygotes (bkd^−/−) develop 2:1 atrioventricular conduction block (two atrial beats for each ventricular beat) that is the result of a prolonged refractory period in the ventricle. This phenotype can be scored in vivo, owing to the transparency of the embryo, enabling a straightforward small molecule suppressor screen. Breakdance homozygotes are viable and fertile, with phenotypic penetrance of 92-96%.
# Tubingen AB (TuAB) and tb218 (bkd^−/−) fish were maintained using standard methods. For screening, tb218^−/− adults were crossed, and embryos were reared in E3 buffer at 25° C. […] Accordingly, dechorionated embryos were plated three per well in 96-well plates in a final volume of 200 μL. At 48 hpf, library compounds (Prestwick and Chembridge) were added to a final concentration of 10 ng/μL. Zebrafish were visually scored at 72 hpf for presence or absence of a 2:1 AV block. […]
# I59S zERG = I59S zERG trafficking in transfected HEK cells (Western blot, immunofluorescence); conditions: for restoration of the upper protein band of the zERG mutant I59S: Western blot, incubation with known trafficking correctors
# [4] = system: I59S KCNH2 mutant zebrafish cardiomyocytes; experiment: Whole cell current clamp recordings of isolated zebrafish cardiomyocytes; conditions: current-clamp mode, perfusion with 10 μM solution
# [5] = Rabbit pharmacokinetic study; type: in vivo; conditions: serum, 10 mg in phosphate buffered saline injected over 30 seconds
# [6] = HEK cells transfected with I59S zERG, 100 μM, 24 hours
smiles,measurement,setting,value
CC(=O)OCC(=O)[C@H]1CC[C@H]2[C@@H]3CCC4=CC(=O)CC[C@]4(C)[C@H]3CC[C@]12C [deoxycorticosterone acetate],"rescue from 2:1 AV block, dose response",[1],no activity
CC1(C)O[C@@H]2C[C@H]3[C@@H]4C[C@H](F)C5=CC(=O)CC[C@]5(C)[C@H]4[C@@H](O)C[C@]3(C)[C@]2(C(=O)CO)O1 [flurandrenolide],"ED50, suppression of the breakdance phenotype",tb218 (bkd−/−) fish,approximately 2 μM
same,ventricular action potential duration,"wildtype fish; wildtype fish, recording at 96 hpf",227 ± 41 ms
same,ventricular action potential duration,bkd−/− embryos; recording at 96 hpf,338 ± 44 ms
same,"rescue from 2:1 AV block, dose response",[2],rescue
CC(=O)[C@@]1(O)CC[C@H]2[C@@H]3C[C@H](C)C4=CC(=O)C=C[C@]4(C)[C@@]3(F)[C@@H](O)C[C@@]21C [fluorometholone],embryos in the well in which the 2:1 AV block was ameliorated (three embryos per well),[3],two of three embryos
CN(CCOc1ccc(NS(C)(=O)=O)cc1)CCc1ccc(NS(C)(=O)=O)cc1 [dofetilide],restoration of the upper protein band of the zERG mutant I59S,I59S zERG,partially restored
"COc1ccccc1C(=O)Nc1ccc(C)cc1 [2-MMB, 2-methoxy-N-(4-methylphenyl)benzamide]",effect on the action potential of mutant cardiomyocytes,[4],shortening of the action potential
same,embryos in the well in which the 2:1 AV block was ameliorated (three embryos per well),[3],all three embryos
same,time series of rescue,tb218 (bkd−/−) fish; scored at indicated times,higher rescue at later time points
same,"ED50, suppression of the breakdance phenotype",tb218 (bkd−/−) fish,~10 µM
same,APD90,"wildtype fish; wildtype embryos, recording at 72 hpf",200 ± 51 ms
same,half-life,[5],15 s
same,ventricular action potential duration,bkd−/− embryos; recording at 72 hpf,376 ± 66 ms
same,percentage of the mature glycoform on Western blot,I59S zERG; [6],did not appreciably change
same,surface expression / membrane localization of I59S zERG by immunofluorescence,I59S zERG; [6],does not alter surface expression
C/C=C(/C)C(=O)O[C@H]1C(C)=C2[C@H]([C@@H]1OC(=O)CCCCCCC)[C@@](C)(OC(C)=O)C[C@H](OC(=O)CCC)[C@@]1(O)[C@H]2OC(=O)[C@@]1(C)O [thapsigargin],restoration of the upper protein band of the zERG mutant I59S,I59S zERG,not
CC(=O)OCC(=O)[C@@]12OC(C)(C)O[C@@H]1C[C@H]1[C@@H]3C[C@H](F)C4=CC(=O)C=C[C@]4(C)[C@@]3(F)[C@@H](O)C[C@@]12C [fluocinonide],embryos in the well in which the 2:1 AV block was ameliorated (three embryos per well),[3],two of three embryos
C[C@@H]1C[C@H]2[C@@H]3CCC4=CC(=O)C=C[C@]4(C)[C@@]3(F)[C@@H](O)C[C@]2(C)[C@@]1(O)C(=O)CO [dexamethasone],"rescue from 2:1 AV block, dose response",[2],rescue
